± gives the standard deviation of the averaged measurements. Whole data set: some 33,000 sequences, median “E-score (dimensionless, -0.5 to 0.5)” near -0.049, cut for the highest 2% near 0.37. Some of the results follow.
What follows are sequences tested on T1, PmTbr T-box DNA-binding domain (GST fusion) (assay: PBM E-score of 8-mer (E-score (dimensionless, -0.5 to 0.5)); Tbr is Tbrain of the sea star Patiria miniata (Pm) or the sea urchin Strongylocentrotus purpuratus (Sp); higher = stronger binding preference; most listed sequences are background and not binding sites). Details: the construct has about 5 more residues each side.
T1 sequence: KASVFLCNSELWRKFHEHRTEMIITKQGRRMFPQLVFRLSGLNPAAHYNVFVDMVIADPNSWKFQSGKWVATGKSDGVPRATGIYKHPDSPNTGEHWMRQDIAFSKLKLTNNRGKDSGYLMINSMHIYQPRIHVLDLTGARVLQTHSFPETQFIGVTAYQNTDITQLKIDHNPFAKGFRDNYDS
Procedure, shortened: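 Universal Agilent oligonucleotide arrays, made double-stranded by primer extension, were incubated with 200 nM GST-fused Tbr T-box DNA-binding domain in PBS (pH 7.5). The protein was expressed in BL21 E. coli at 20 °C and purified by glutathione affinity chromatography. After scanning and quantification, the Universal PBM Analysis Suite assigned an enrichment E-score to each ungapped 8-mer, averaged over duplicate arrays.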

In order of falling “PBM E-score of 8-mer” value:
1. ATTACACC  0.349 ± 0.0023
2. AACAAGTG  0.317 ± 0.036
3. GGTTAGCA  0.314 ± 0.027
4. AAGTTGTC  0.306 ± 0.0088
5. CTATCACA  0.305 ± 0.009
6. GGTGTCCA  0.294 ± 0.021
7. ATGCTCAC  0.261 ± 0.0054
8. GGACGTGA  0.259 ± 0.0037
9. TGATATCA  0.259 ± 0.011
10. CACATAGC  0.256 ± 0.037
11. ATTCGCGG  0.244 ± 0.039
12. GTGTTTGA  0.235 ± 0.04
13. CACTCGGA  0.221 ± 0.015
14. ACTGTGAG  0.22 ± 0.017
15. GAAATCAC  0.216 ± 0.01
16. CAGCTCGA  0.215 ± 0.019
17. AATGTGGG  0.214 ± 0.036
18. GGTAACAA  0.198 ± 0.056
19. GGTGGGAC  0.189 ± 0.011
20. CGTTACAC  0.181 ± 0.0063
21. ACACTGAT  0.165 ± 0.01
22. ACATCTCC  0.16 ± 0.025
23. CAATGGCA  0.157 ± 0.024
24. CCGCTACC  0.153 ± 0.0095
25. GAACGGAC  0.135 ± 0.012
26. GCGAACAA  0.133 ± 0.004
27. ACCACATA  0.1315 ± 0.00076
28. ACCTACTA  0.128 ± 0.021
29. GAGAAAGC  0.124 ± 0.06
30. AGACACTA  0.122 ± 0.044
31. CCACGGCC  0.12 ± 0.021
32. CGGGTCGC  0.119 ± 0.092
33. ACGCATCG  0.118 ± 0.017
34. ACTATTTA  0.116 ± 0.085
35. ACCTCTGC  0.114 ± 0.051
36. AACAATTA  0.0945 ± 0.0071
37. CTACTTAC  0.0878 ± 0.044
38. AATCCGCG  0.0877 ± 0.013
39. ACCCCGCT  0.0858 ± 0.021
40. GTTAGAAC  0.0847 ± 0.031
41. TGTCCACA  0.0836 ± 0.059
42. AAACGGTG  0.0825 ± 0.011
43. CCTACCCG  0.0823 ± 0.023
44. GGAGCGAC  0.0741 ± 0.015
45. AGTACACG  0.0709 ± 0.011
46. CCGGATTC  0.0691 ± 0.16
47. GCGATGTA  0.0636 ± 0.0069
48. GACGCGTA  0.0611 ± 0.022
49. CTCAAATC  0.059 ± 0.054
50. AACAGGGC  0.0566 ± 0.012
51. CTACGCAC  0.0515 ± 0.034
52. GGAGCCGA  0.051 ± 0.04
53. AGCATTCC  0.047 ± 0.023
54. AATCATAA  0.0409 ± 0.00098
55. TATTTGCA  0.0407 ± 0.063
56. AATTCTGT  0.0336 ± 0.035
57. CATACAAC  0.0309 ± 0.045
58. CATCTGAC  0.0163 ± 0.016
59. AACAATAT  0.00943 ± 0.055
60. GCGTCTCA  0.00931 ± 0.019
61. CACCGGAG  0.00722 ± 0.051
62. ACCCAAAT  -0.0101 ± 0.078
63. CCAGGGGG  -0.0137 ± 0.0017
64. CTTGCCGC  -0.0178 ± 0.037
65. TAAGTGCA  -0.0219 ± 0.073
66. CCTTCGCC  -0.0247 ± 0.041
67. ATGTGGTC  -0.0251 ± 0.046
68. AAGTATTG  -0.0327 ± 0.066
69. CCAGTTGA  -0.033 ± 0.037
70. GAGTAAAC  -0.0381 ± 0.018
71. GAAGCTTC  -0.0406 ± 0.17
72. AAGGGTAC  -0.04524 ± 5.7e-05
73. ACTCCTGA  -0.0453 ± 0.03
74. GGATGCTA  -0.0456 ± 0.0095
75. GATAGGGA  -0.0469 ± 0.0089
76. AAAAATGC  -0.047 ± 0.066
77. GCTCCGAA  -0.0515 ± 0.015
78. TGTAGAAA  -0.0519 ± 0.1
79. AACCACTT  -0.052 ± 0.073
80. ATGGCGCA  -0.0543 ± 0.098
81. GTGGAGCA  -0.0549 ± 0.039
82. GCTTACCA  -0.0556 ± 0.093
83. TACGCCCA  -0.0572 ± 0.091
84. GGCATCCA  -0.0589 ± 0.0093
85. ACCGCCCA  -0.066 ± 0.0059
86. AGGCTGAT  -0.0665 ± 0.0036
87. AAGTCTAA  -0.0669 ± 0.06
88. TGCTACAA  -0.0676 ± 0.076
89. AATCTTCA  -0.068 ± 0.038
90. AATGCTTC  -0.0719 ± 0.18
91. CCGGGGTA  -0.0768 ± 0.015
92. ACTCTTGA  -0.0845 ± 0.039
93. GGGCATAA  -0.086 ± 0.035
94. CCAGTACC  -0.0862 ± 0.059
95. TCTCATAA  -0.0872 ± 0.047
96. CTCCTACA  -0.0881 ± 0.027
97. CTTTTTTA  -0.0882 ± 0.16
98. CATACGTA  -0.0885 ± 0.12
99. CAATTTAG  -0.0909 ± 0.094
100. AATCAGTA  -0.0919 ± 0.032
101. AGTATTCC  -0.0919 ± 0.053
102. ACTGAAAG  -0.0925 ± 0.034
103. CTTAATGC  -0.0943 ± 0.11
104. AAGCATTG  -0.0972 ± 0.077
105. AGTCTGTG  -0.0993 ± 0.051
106. AAAATTCT  -0.1 ± 0.051
107. CGGGGATC  -0.101 ± 0.043
108. CTGTTCCC  -0.105 ± 0.1
109. TAAACGCA  -0.11 ± 0.042
110. CCGGACTA  -0.113 ± 0.048
111. CGGTATAG  -0.114 ± 0.075
112. AAGAGACA  -0.119 ± 0.093
113. GCGTTTCA  -0.121 ± 0.034
114. CTATTCGA  -0.124 ± 0.004
115. GAACGTAC  -0.124 ± 0.0099
116. GAACTCTA  -0.125 ± 0.0029
117. CATCCTTC  -0.129 ± 0.076
118. CGATCGAA  -0.13 ± 0.0037
119. CCCTTGGA  -0.13 ± 0.033
120. AGATGAAT  -0.13 ± 0.058
121. GAATTCAA  -0.132 ± 0.067
122. GCTGATTA  -0.134 ± 0.039
123. CATACTAC  -0.138 ± 0.0096
124. TAGGTAAA  -0.141 ± 0.018
125. AACCTGGA  -0.141 ± 0.018
126. ATAACTCA  -0.141 ± 0.0091
127. CGACCCAC  -0.142 ± 0.055
128. AAACAATT  -0.144 ± 0.029
129. AGTACCAG  -0.145 ± 0.08
130. GATAGATC  -0.149 ± 0.037
131. CCCAGTTC  -0.152 ± 0.02
132. TCAATTAA  -0.153 ± 0.077
133. GAGTAGTA  -0.156 ± 0.053
134. CAAACCTA  -0.158 ± 0.0051
135. CAAAGTCA  -0.158 ± 0.012
136. GTGATCTA  -0.158 ± 0.015
137. ATTATGCG  -0.162 ± 0.031
138. ATTCCAAG  -0.162 ± 0.051
139. ACTGGCCC  -0.164 ± 0.004
140. CCAAAAAA  -0.164 ± 0.083
141. AGGAAGCC  -0.165 ± 0.055
142. AGAAACGG  -0.165 ± 0.043
143. ATTACGTA  -0.169 ± 0.0051
144. CAACATAG  -0.169 ± 0.035
145. AGGAGATC  -0.171 ± 0.1
146. TACCTGCA  -0.174 ± 0.0055
147. CAGCACTA  -0.175 ± 0.026
148. ATAGGATC  -0.178 ± 0.024
149. AGTCGCCG  -0.185 ± 0.035
150. GGACGGCC  -0.189 ± 0.036
151. CCAGCGTA  -0.191 ± 0.039
152. CCCCTCAG  -0.191 ± 0.024
153. ACAAACCC  -0.194 ± 0.023
154. AGCCTTAA  -0.195 ± 0.07
155. TTACCGAA  -0.2 ± 0.041
156. CTAATTAA  -0.204 ± 0.065
157. ATGTCCCA  -0.204 ± 0.034
158. AGCTATGC  -0.214 ± 0.044
159. AGCCGGGG  -0.217 ± 0.028
160. AGATGCAC  -0.217 ± 0.11
161. AACTATCC  -0.231 ± 0.032
162. AGCTCGGG  -0.233 ± 0.01
163. AGGGGAGC  -0.245 ± 0.032
164. AGCTTCCC  -0.255 ± 0.0013
165. GCTCCCCC  -0.26 ± 0.0098
166. CTCTTTAA  -0.27 ± 0.1
167. CGTTGGGC  -0.272 ± 0.012
168. CCGAGGTA  -0.286 ± 0.05
169. AACCAAAG  -0.298 ± 0.06
170. AACCACGT  -0.316 ± 0.0044
171. GCCGAACC  -0.348 ± 0.025
172. AGGGTAAG  -0.39 ± 0.028
